Data from PubChem BioAssay AID1963576 (National Center for Advancing Translational Sciences (NCATS), 2024).
Hit rate of the full screen: of about 46,000 compounds, about 60 (0.1%) were called active. Another 3% or so got no clear call; they are omitted. Calls come from the whole dose curve; as a rule, active = well fitted inhibition curve with a large enough effect; inconclusive = small, poorly fitted or top-dose-only effect; inactive = no such curve, though single readings can be large or run the other way. The list shows a part of the results.

Test: Primary qHTS assay for Inhibitors of ovarian cancer metastasis using an organotypic tumor microenvironment (TME) model.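 For activity change, negative = inhibition: plate controls were DMSO wells for no effect and tomatine positive control wells for full effect.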 Note: nearly all actives have a fitted effect of over 65% in size.
Conditions: SKOV3ip1-GFP adhesion/invasion on 3D omental model, fluorescence; series mostly up to 45.8 µM; activity change, negative = inhibition: at the top concentration
Procedure, shortened: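 Adhesion/invasion was scored as fixed GFP-labeled SKOV3ip1 cell counts (488/509 nm), normalized to DMSO and tomatine controls. Cancer cells in serum-free medium, with four compound doses (0.36-46 umol/L), sat 2 hr at RT then 16 hr at 37 C on a 48 hr fibroblast/mesothelial/ECM culture.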

Activity change, negative = inhibition, inactive:
Cc1nc(S(=O)(=O)N2CCN(c3ccccc3F)CC2)cn1C 11.1%
COc1ccc(OC)c(/C=C(\C#N)c2nc(-c3ccc(F)cc3)cs2)c1 -9.42%
COc1ccc(Cn2c(C(=O)O)c(CNC3CCCCC3)c3ccc(C)cc32)cc1 2.76%
COC(=O)c1ccc2c(c1)N(Cc1ccccc1)C(=O)c1ccccc1S2(=O)=O 6.92%
COc1ccccc1NC(=O)c1sc2nc3n(c(=O)c2c1C)N=C(c1cccc(Br)c1)CS3 -1.95%
COc1ccc2c(c1)CCc1c(C(=O)Nc3ccc(OC)cc3OC)noc1-2 5.59%
Cc1cccc(CNC(=O)CN2C(=O)CCn3nc(-c4cn(C)c5ccccc45)cc32)c1 -3.81%
CCCC12CN3CC(C)(CN(C1)C3c1ccc(OCc3ccccc3)cc1)C2=O (stereo not drawn) -0.731%
Cc1ccc(SCc2nc(-c3ccc(C(=O)NCC(C)c4ccccc4)cc3)oc2C)cc1 (stereo not drawn) 6.06%
CCOc1ccc(NC(=O)Cc2c[nH]c3ccccc23)cc1 4.23%
O=C(O)c1ccc(NC(=O)c2ccc(Br)c(S(=O)(=O)N3CCCC3)c2)cc1 -6.59%
Nc1c(-c2nc(-c3ccc4c(c3)OCO4)cs2)c2ccccn2c1C(=O)c1ccc(Cl)cc1 0.214%
COc1cc(C(CC(=O)Nc2ncccc2C)N2Cc3ccccc3C2=O)cc(OC)c1OC (stereo not drawn) -7.29%
CCOC(=O)c1cnc2ccc(OCC)cc2c1Nc1ccc(OCc2ccccc2Cl)cc1 -14.2%
CCN(c1ccccc1)S(=O)(=O)c1ccc(NC(=O)c2nc(SC(C)C)ncc2Cl)cc1 0.546%
Cc1ccc(C(=O)N2CCC(C)CC2)cc1NC(=O)c1nsc2ccccc12 2.66%
O=C(OCc1cc(=O)n2nc(C3CC3)sc2n1)c1ccc(NC(=O)c2ccccc2F)cc1 -6.67%
CCOc1ccc(Br)cc1C1NC(=O)c2c(sc3c2CCN(C)C3)N1 (stereo not drawn) 8.7%
CC1(C)CC(=O)c2c(C(F)(F)F)nn(-c3ccc(C(N)=O)c(NC4CCC(O)CC4)c3)c2C1 (stereo not drawn) -5.46%
CC(=O)c1cc(-c2ccc(F)cc2)n(CCC(=O)Nc2nc3ccc(C)cc3s2)c1C 1.81%
CCc1ccccc1NC(=O)c1ccc(F)c(S(=O)(=O)N2CCN(c3cccc(Cl)c3)CC2)c1 6.91%
CC1CCCCN1CCCNC(=O)Cn1ncc2c3ccccc3n(C)c2c1=O (stereo not drawn) 7.6%
Cc1ccc(S(=O)(=O)c2cc3cc(C(=O)Nc4ccc(C)cc4C)ccc3oc2=O)cc1 -8.74%
COc1ccc(CCNc2ncnc3onc(C)c23)c(OC)c1 3.81%
CC1CCN(S(=O)(=O)c2ccc3nc(N4CCN(c5ccc(F)cc5)CC4)ccc3c2)CC1 -0.148%
C[C@]12CC[C@H](O)CC1=CC[C@@H]1[C@H]2CC[C@]2(C)C(c3cccnc3)=CC[C@H]12 -14.4% [at 23.2 µM]
CC(C)OCCCNC(=O)CCCN1C(=O)CCn2nc(-c3cccn3C)cc21 -0.282%
O=C(COCc1cc(-c2cccs2)on1)Nc1cc(C(F)(F)F)ccc1Cl 1.62%
CCOc1ccc(NC(=O)CSc2oc(-c3ccc(C)cc3)nc2S(=O)(=O)c2ccc(C)cc2)cc1 -0.872%
COc1cccc(C(=O)N(Cc2ccc(C)o2)C2CCS(=O)(=O)C2)c1 (stereo not drawn) 4.34%
Nc1ccn([C@@H]2O[C@H](CO)[C@@H](O)[C@H]2O)c(=O)n1 -3.37%
Cc1cc(C)c(NC(=O)CSc2nc3c([nH]c4ccccc43)c(=O)n2C)c(C)c1 43.3%
CCCOc1cccc(C2c3c(oc4ccc(F)cc4c3=O)C(=O)N2c2nc(C)c(C(C)=O)s2)c1 (stereo not drawn) 1.1%
CCc1ccccc1N(CC)C(=O)C1CCN(c2ncnc3c2nc2n3CCCCC2)CC1 -1.94%
COCCCNc1nc(NCc2ccc(C)cc2)c2cnn(C)c2n1 4.46%
COc1cccc2c1cc1c(=O)n(CC(=O)N3CCC(C)CC3)nc(C)n12 -18.1%
COCCc1nn2c(=O)cc(COC(=O)c3ccc(Br)cc3)nc2s1 1.78%
CN1CCN(C(CNC(=O)c2c(F)cccc2F)c2ccc3c(c2)OCO3)CC1 (stereo not drawn) -6.71%
O=c1c2ccccc2n(Cc2cccc(Cl)c2)c(=O)n1Cc1ccccc1 14%
CCN(C(=O)Cn1ncc2c(=O)oc3ccccc3c21)c1ccccc1F 4%
CCC(=O)Nc1sc2c(c1C(=O)Nc1ccc(Br)cc1)CCCCC2 -7.26%
COc1ccccc1-c1nc(SCC(=O)c2ccc(Cl)cc2)n[nH]1 1.88%
O=c1oc2ccccc2cc1-c1nc(-c2cccs2)no1 10.4%
CCS(=O)(=O)N1CCc2cc(C(=O)NCc3ccccc3Cl)ccc21 4.46%
COc1cc(OC)cc(C(=O)NCCc2csc(-c3ccc(C(F)(F)F)cc3)n2)c1 -3.53%
COc1ccccc1NC(=O)c1sc2nc(C)c(C(=O)Nc3ccc(C)cc3C)c(-c3ccccc3Cl)c2c1N 5.86%
O=C(c1cc2ccc3cccnc3c2[nH]1)N1CCN(c2cccc(Cl)c2)CC1 -8.69%
COc1ccc(NC(=O)C(C(C)C)N2Cc3ccccc3C2=O)cc1 (stereo not drawn) -10.7%
O=C(NCCc1ccc(Cl)cc1)C(=O)NCC(c1cccs1)S(=O)(=O)c1ccccc1 (stereo not drawn) 1.29%
Cc1ccc(Nc2c(-c3ccc(C)cc3)nc3c(C)cccn23)cc1 14.4%
COc1ccc(-c2noc(CSc3nc4ccccc4[nH]3)n2)cc1 -16.3%
Cc1cc2n(n1)CCC(=O)N2Cc1ccc(C(=O)Nc2cccc(C(F)(F)F)c2)cc1 4.46%
COC(=O)c1cc2sc(C)cc2n1Cc1nc(-c2ccc(C)cc2)oc1C -7.33%
CC(=O)N1c2ccc(S(=O)(=O)NCCC(=O)N(C)Cc3ccccc3)cc2CC1C (stereo not drawn) -6.61%
CNC(=O)c1c(NC(=O)Cc2coc3ccc(OC)cc23)sc2c1CCCC2 -0.657%
O=C(Cc1ccc(Cl)cc1)Nc1ccc2oc(-c3ccccc3F)nc2c1 -4.79%
COc1cccc(CN(C(=O)c2oc3ccccc3c2C)C2CCS(=O)(=O)C2)c1 (stereo not drawn) 14%
CCc1cccc(C)c1NC(=O)CCS(=O)(=O)c1ccc2c(c1)oc(=O)n2C 1.91%
COc1cc(C)ccc1OCCSc1nc2ccc(NC(C)=O)cc2s1 -6.93%
CCc1ccc(NC(=O)CSc2nc3c([nH]c4ccccc43)c(=O)n2-c2cccc(OC)c2)cc1 -0.478%
CCOC(=O)c1ccc(NC(=O)Cn2cnc3sc(C(=O)OCC)c(C)c3c2=O)cc1 6.33%
CCC(Sc1nnc2c3ccccc3n(C)c2n1)C(=O)Nc1nnc(C(C)C)s1 (stereo not drawn) -5.64%
Cc1cc(F)ccc1NC(=O)CCSc1nc(-c2ccco2)cc(C(F)(F)F)n1 5.89%
COC(=O)COc1ccc(Oc2nc(NC(C)(C)C)nc(N(C)C)n2)nn1 -1.03%
Cc1cccc(C(=O)N2CCc3cc(CNS(=O)(=O)c4cccs4)ccc32)c1 -7.51%
Cc1ccc2nc(N(Cc3cccnc3)C(=O)CCOc3ccccc3)sc2c1 -35.7%
CCc1cc2c(cc3c(=O)n(CC(=O)NCCOC)nc(CC)n32)s1 -2.6%
CC(=O)Nc1ccc(Nc2ncnc3sc4c(c23)CCCC4)cc1 -3.11%
COc1ccc(C(=O)NCC(c2ccc3c(c2)OCO3)N2CCOCC2)cc1OC (stereo not drawn) 3.03%
Cc1ccc(C(=O)NC2(C(F)(F)F)N=C(c3ccccc3)N(C3CCCCC3)C2=O)cc1 (stereo not drawn) 8.13%
O=C(Cn1c(=O)n2nc(-c3cccc(F)c3)nc2c2ccccc21)N1CCN(c2ccccc2F)CC1 -0.106%
O=C(c1cccc(Cl)c1)N1CCC(c2nc3ccccc3o2)CC1 -12.1%

outcome, inactive:
COc1ccc(Cl)cc1NC(=O)CN1Cc2ccccc2C1=O
Cc1cccc(CNC(=O)CN2C(=O)CSc3c2c(C)nn3-c2ccccc2)c1
COc1ccc(-c2nc3cc(NC(=O)c4ccc(C)cc4)ccc3o2)cc1Cl
COCCCn1c(=N)c(C(=O)NC2CCCCC2)cc2c(=O)n3cc(C)ccc3nc21
COc1ccc(-c2cc(C(F)(F)F)nc(NCc3ccc(F)cc3)n2)cc1
COc1ccc(CCNC(=O)c2ccc(Cn3c(=O)[nH]c4cc(OC)c(OC)cc4c3=O)cc2)cc1OC
CCCCNC(=O)CN1CCN(c2ncc(NC(=O)c3ccc(Cl)cc3)cc2C(=O)O)CC1
COc1cc(NC(=O)C2CCN(c3nc4ccccc4nc3C(F)(F)F)CC2)cc(OC)c1
CCC(C)NC(=O)c1sc2nc3n(c(=O)c2c1C)CCC3 (stereo not drawn)
Cc1cccc(N2CCN(C(=O)c3cc4ccc5cccnc5c4[nH]3)CC2C)c1 (stereo not drawn)
Cc1ccc2oc(=O)c3cc(C(=O)NCCc4ccc(Cl)cc4)sc3c2c1
Cc1ccc(NC(=O)CCN2C(=O)c3ccccc3Sc3ncccc32)c(Cl)c1
CCc1ccccc1NC(=O)NC(CC)Cn1nnc2ccccc2c1=O (stereo not drawn)
CCOc1ccccc1NS(=O)(=O)c1cc(-c2cnc(C3CC3)o2)ccc1C
Cc1ccc(-n2nc3c(=O)n(C(C)C(=O)NCc4ccccc4C)nc(C)c3c2C)cc1 (stereo not drawn)
CCCCc1nn2c(=O)cc(COC(=O)c3ccccc3C)nc2s1
CC(C)c1ccc(Nc2c(-c3ccc(N(C)C)cc3)nc3cnccn23)cc1
Cc1ccc(C)c(NC(=O)CSc2nc(=O)n(Cc3ccncc3)c3c2CCC3)c1
CCCCCn1c(=O)c2c(nc3n2CCN3c2ccc(Br)cc2)n(C)c1=O
CCOc1ccc(NC(=O)CSc2nc(=O)[nH]c3c2CCC3)cc1
Cc1ccc(C)c(CNC(=O)c2sc3ncnc(N(C)C4CCCCC4)c3c2C)c1
COc1ccc(-c2cc3ccc(O)c(CN4CCCC4)c3oc2=O)cc1OC
CCn1c(CC2C(=O)N(C)c3ccc(Br)cc32)nc2ccccc2c1=O (stereo not drawn)
CCOC(=O)c1c(C)c(-c2ccccc2)n(CC(=O)Nc2cccc(C)c2C)c1C
CC1CCN(C(=O)C(C)Sc2nc(-c3ccccc3)cc(C(F)(F)F)n2)CC1 (stereo not drawn)
COc1ccc(OC)c(NC(=O)c2c(C)oc3ncnc(N4CCOCC4)c23)c1
